# Source: the supplement of paper PMC8728848
# The list shows a part of the results.
# Assays:
# Assay in all cases: glycan array binding signal (z-score within array); higher = stronger binding
# Conditions in all cases: glycan notation: IUPAC condensed, linker removed; mutation: N288D, K313I
# [1] = target: Neu5Ac(a2-3)GalNAc
# Outline: (§1)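 The Consortium for Functional Glycomics database supplied 3228 glycan arrays, of which those lacking an available protein sequence were dropped. The binding signal, a within-array Z-score, was averaged across arrays of the same protein sequence and across linkers. Negative scores can be read as non-binding.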
# [2] = target: Neu5Ac(a2-3)GalNAc(b1-4)GlcNAc
# Outline: as §1
# [3] = target: Neu5Ac(a2-3)[GalNAc(b1-4)]Gal(b1-4)Glc
# Outline: as §1
# [4] = target: Neu5Ac(a2-3)[GalNAc(b1-4)]Gal(b1-4)GlcNAc
# Outline: as §1
# [5] = target: Neu5Ac(a2-3)[GalNAc(b1-4)]Gal(b1-4)GlcNAc(b1-3)GalNAc
# Outline: as §1
# [6] = target: Neu5Ac(a2-3)[Neu5Ac(a2-6)]GalNAc
# Outline: as §1
# [7] = target: Neu5Ac(a2-6)Gal
# Outline: as §1
# [8] = target: Neu5Ac(a2-6)Gal(b1-3)GlcNAc(b1-3)[Gal(b1-4)GlcNAc(b1-6)]Gal(b1-4)Glc
# Outline: as §1
# [9] = target: Neu5Ac(a2-6)Gal(b1-4)Glc
# Outline: as §1
# [10] = target: Neu5Ac(a2-6)Gal(b1-4)GlcNAc
# Outline: as §1
# [11] = target: Neu5Ac(a2-6)Gal(b1-4)GlcNAc(b1-2)Man
# Outline: as §1
# [12] = target: Neu5Ac(a2-6)Gal(b1-4)GlcNAc(b1-2)Man(a1-3)Man(b1-4)GlcNAc(b1-4)GlcNAc
# Outline: as §1
# [13] = target: Neu5Ac(a2-6)Gal(b1-4)GlcNAc(b1-2)Man(a1-3)[Gal(b1-4)GlcNAc(b1-2)Man(a1-6)]Man(b1-4)GlcNAc(b1-4)GlcNAc
# Outline: as §1
# [14] = target: Neu5Ac(a2-6)Gal(b1-4)GlcNAc(b1-2)Man(a1-3)[GlcNAc(b1-2)Man(a1-6)]Man(b1-4)GlcNAc(b1-4)GlcNAc
# Outline: as §1
# [15] = target: Neu5Ac(a2-6)Gal(b1-4)GlcNAc(b1-2)Man(a1-3)[GlcNAc(b1-4)][Neu5Ac(a2-6)Gal(b1-4)GlcNAc(b1-2)Man(a1-6)]Man(b1-4)GlcNAc(b1-4)GlcNAc
# Outline: as §1
# [16] = target: Neu5Ac(a2-6)Gal(b1-4)GlcNAc(b1-2)Man(a1-3)[Man(a1-6)]Man(b1-4)GlcNAc(b1-4)GlcNAc
# Outline: as §1
# [17] = target: Neu5Ac(a2-6)Gal(b1-4)GlcNAc(b1-2)Man(a1-3)[Neu5Ac(a2-3)Gal(b1-4)GlcNAc(b1-2)Man(a1-6)]Man(b1-4)GlcNAc(b1-4)GlcNAc
# Outline: as §1
# [18] = target: Neu5Ac(a2-6)Gal(b1-4)GlcNAc(b1-2)Man(a1-3)[Neu5Ac(a2-6)Gal(b1-4)GlcNAc(b1-2)Man(a1-6)]Man(b1-4)GlcNAc(b1-4)GlcNAc
# Outline: as §1
# [19] = target: Neu5Ac(a2-6)Gal(b1-4)GlcNAc(b1-2)Man(a1-3)[Neu5Ac(a2-6)Gal(b1-4)GlcNAc(b1-2)Man(a1-6)]Man(b1-4)GlcNAc(b1-4)[Fuc(a1-6)]GlcNAc
# Outline: as §1
# [20] = target: Neu5Ac(a2-6)Gal(b1-4)GlcNAc(b1-2)Man(a1-6)Man(b1-4)GlcNAc(b1-4)GlcNAc
# Outline: as §1
# [21] = target: Neu5Ac(a2-6)Gal(b1-4)GlcNAc(b1-2)Man(a1-6)[Gal(b1-4)GlcNAc(b1-2)Man(a1-3)]Man(b1-4)GlcNAc(b1-4)GlcNAc
# Outline: as §1
# [22] = target: Neu5Ac(a2-6)Gal(b1-4)GlcNAc(b1-2)Man(a1-6)[GlcNAc(b1-2)Man(a1-3)]Man(b1-4)GlcNAc(b1-4)GlcNAc
# Outline: as §1
# [23] = target: Neu5Ac(a2-6)Gal(b1-4)GlcNAc(b1-2)Man(a1-6)[Man(a1-3)]Man(b1-4)GlcNAc(b1-4)GlcNAc
# Outline: as §1
# [24] = target: Neu5Ac(a2-6)Gal(b1-4)GlcNAc(b1-2)[Neu5Ac(a2-6)Gal(b1-4)GlcNAc(b1-4)]Man(a1-3)[GlcNAc(b1-4)][Neu5Ac(a2-6)Gal(b1-4)GlcNAc(b1-2)[Neu5Ac(a2-6)Gal(b1-4)GlcNAc(b1-6)]Man(a1-6)]Man(b1-4)GlcNAc(b1-4)GlcNAc
# Outline: as §1
# [25] = target: Neu5Ac(a2-6)Gal(b1-4)GlcNAc(b1-2)[Neu5Ac(a2-6)Gal(b1-4)GlcNAc(b1-4)]Man(a1-3)[GlcNAc(b1-4)][Neu5Ac(a2-6)Gal(b1-4)GlcNAc(b1-4)Man(a1-6)]Man(b1-4)GlcNAc(b1-4)GlcNAc
# Outline: as §1
# [26] = target: Neu5Ac(a2-6)Gal(b1-4)GlcNAc(b1-2)[Neu5Ac(a2-6)Gal(b1-4)GlcNAc(b1-6)]Man(a1-6)[Neu5Ac(a2-6)Gal(b1-4)GlcNAc(b1-2)Man(a1-3)][GlcNAc(b1-4)]Man(b1-4)GlcNAc(b1-4)GlcNAc
# Outline: as §1
# [27] = target: Neu5Ac(a2-6)Gal(b1-4)GlcNAc(b1-3)Gal(b1-3)GlcNAc
# Outline: as §1
# [28] = target: Neu5Ac(a2-6)Gal(b1-4)GlcNAc(b1-3)Gal(b1-4)GlcNAc
# Outline: as §1
# [29] = target: Neu5Ac(a2-6)Gal(b1-4)GlcNAc(b1-3)Gal(b1-4)GlcNAc(b1-2)Man(a1-3)[Neu5Ac(a2-6)Gal(b1-4)GlcNAc(b1-3)Gal(b1-4)GlcNAc(b1-2)Man(a1-6)]GalNAc
# Outline: as §1
# [30] = target: Neu5Ac(a2-6)Gal(b1-4)GlcNAc(b1-3)Gal(b1-4)GlcNAc(b1-3)Gal(b1-4)GlcNAc
# Outline: as §1
# [31] = target: Neu5Ac(a2-6)Gal(b1-4)GlcNAc(b1-3)Gal(b1-4)GlcNAc(b1-3)Gal(b1-4)GlcNAc(b1-2)Man(a1-3)[Neu5Ac(a2-6)Gal(b1-4)GlcNAc(b1-3)Gal(b1-4)GlcNAc(b1-3)Gal(b1-4)GlcNAc(b1-2)Man(a1-6)]GalNAc
# Outline: as §1
# [32] = target: Neu5Ac(a2-6)Gal(b1-4)GlcNAc(b1-3)Gal(b1-4)GlcNAc(b1-3)GalNAc
# Outline: as §1
# [33] = target: Neu5Ac(a2-6)Gal(b1-4)GlcNAc(b1-3)Gal(b1-4)GlcNAc(b1-3)[Neu5Ac(a2-6)Gal(b1-4)GlcNAc(b1-3)Gal(b1-4)GlcNAc(b1-6)]GalNAc
# Outline: as §1
# [34] = target: Neu5Ac(a2-6)Gal(b1-4)GlcNAc(b1-3)Gal(b1-4)GlcNAc(b1-6)[Gal(b1-3)]GalNAc
# Outline: as §1
# [35] = target: Neu5Ac(a2-6)Gal(b1-4)GlcNAc(b1-3)Gal(b1-4)[Fuc(a1-3)]GlcNAc(b1-3)Gal(b1-4)[Fuc(a1-3)]GlcNAc
# Outline: as §1
# [36] = target: Neu5Ac(a2-6)Gal(b1-4)GlcNAc(b1-3)GalNAc
# Outline: as §1
# [37] = target: Neu5Ac(a2-6)Gal(b1-4)GlcNAc(b1-3)[Neu5Ac(a2-6)Gal(b1-4)GlcNAc(b1-6)]GalNAc
# Outline: as §1
# [38] = target: Neu5Ac(a2-6)Gal(b1-4)GlcNAc(b1-6)GalNAc
# Outline: as §1
binder,measurement,setting,value
"Langerin (Homo sapiens), Q9UJ71 (protein) STLNAQIPELKSDLEKASALNTKIRALQGSLENMSKLLKRQNDILQVVSQGWKYFKGNFYYFSLIPKTWYSAEQFCVSRNSHLTSVTSESEQEFLYKTAGGLIYWIGLTKAGMEGDWSWVDDTPFNKVQSARFWIPGEPNDAGNNEHCGNIKAPSLQAWNDAPCDITFLFICKRPYVPSEP",glycan array binding signal (z-score),[1],-0.35
same,glycan array binding signal (z-score),[2],-0.179
same,glycan array binding signal (z-score),[3],-0.304
same,glycan array binding signal (z-score),[4],-0.079
same,glycan array binding signal (z-score),[5],-0.084
same,glycan array binding signal (z-score),[6],-0.291
same,glycan array binding signal (z-score),[7],-0.24
same,glycan array binding signal (z-score),[8],-0.202
same,glycan array binding signal (z-score),[9],-0.182
same,glycan array binding signal (z-score),[10],-0.343
same,glycan array binding signal (z-score),[11],-0.109
same,glycan array binding signal (z-score),[12],-0.115
same,glycan array binding signal (z-score),[13],-0.022
same,glycan array binding signal (z-score),[14],-0.325
same,glycan array binding signal (z-score),[15],-0.29
same,glycan array binding signal (z-score),[16],-0.2
same,glycan array binding signal (z-score),[17],-0.156
same,glycan array binding signal (z-score),[18],-0.15
same,glycan array binding signal (z-score),[19],-0.182
same,glycan array binding signal (z-score),[20],-0.131
same,glycan array binding signal (z-score),[21],-0.158
same,glycan array binding signal (z-score),[22],-0.278
same,glycan array binding signal (z-score),[23],-0.187
same,glycan array binding signal (z-score),[24],-0.271
same,glycan array binding signal (z-score),[25],-0.228
same,glycan array binding signal (z-score),[26],-0.1
same,glycan array binding signal (z-score),[27],-0.267
same,glycan array binding signal (z-score),[28],-0.353
same,glycan array binding signal (z-score),[29],-0.052
same,glycan array binding signal (z-score),[30],-0.299
same,glycan array binding signal (z-score),[31],0.27
same,glycan array binding signal (z-score),[32],-0.24
same,glycan array binding signal (z-score),[33],-0.171
same,glycan array binding signal (z-score),[34],-0.179
same,glycan array binding signal (z-score),[35],0.087
same,glycan array binding signal (z-score),[36],-0.102
same,glycan array binding signal (z-score),[37],0.056
same,glycan array binding signal (z-score),[38],0.078
